{"source": "paper PMC4336329", "about": "(PLoS ONE, 2015)", "note": "Among all 310,000 compounds or so, about 2,200 (0.71%) showed an effect of 50% or more. Effects have a minus sign here. This is one part of the list.", "data": [{"molecular_target": "human ether-à-go-go-related gene (hERG) potassium channel (human, UniProt Q12809)", "sequence (Q12809 whole entry, looked up)": "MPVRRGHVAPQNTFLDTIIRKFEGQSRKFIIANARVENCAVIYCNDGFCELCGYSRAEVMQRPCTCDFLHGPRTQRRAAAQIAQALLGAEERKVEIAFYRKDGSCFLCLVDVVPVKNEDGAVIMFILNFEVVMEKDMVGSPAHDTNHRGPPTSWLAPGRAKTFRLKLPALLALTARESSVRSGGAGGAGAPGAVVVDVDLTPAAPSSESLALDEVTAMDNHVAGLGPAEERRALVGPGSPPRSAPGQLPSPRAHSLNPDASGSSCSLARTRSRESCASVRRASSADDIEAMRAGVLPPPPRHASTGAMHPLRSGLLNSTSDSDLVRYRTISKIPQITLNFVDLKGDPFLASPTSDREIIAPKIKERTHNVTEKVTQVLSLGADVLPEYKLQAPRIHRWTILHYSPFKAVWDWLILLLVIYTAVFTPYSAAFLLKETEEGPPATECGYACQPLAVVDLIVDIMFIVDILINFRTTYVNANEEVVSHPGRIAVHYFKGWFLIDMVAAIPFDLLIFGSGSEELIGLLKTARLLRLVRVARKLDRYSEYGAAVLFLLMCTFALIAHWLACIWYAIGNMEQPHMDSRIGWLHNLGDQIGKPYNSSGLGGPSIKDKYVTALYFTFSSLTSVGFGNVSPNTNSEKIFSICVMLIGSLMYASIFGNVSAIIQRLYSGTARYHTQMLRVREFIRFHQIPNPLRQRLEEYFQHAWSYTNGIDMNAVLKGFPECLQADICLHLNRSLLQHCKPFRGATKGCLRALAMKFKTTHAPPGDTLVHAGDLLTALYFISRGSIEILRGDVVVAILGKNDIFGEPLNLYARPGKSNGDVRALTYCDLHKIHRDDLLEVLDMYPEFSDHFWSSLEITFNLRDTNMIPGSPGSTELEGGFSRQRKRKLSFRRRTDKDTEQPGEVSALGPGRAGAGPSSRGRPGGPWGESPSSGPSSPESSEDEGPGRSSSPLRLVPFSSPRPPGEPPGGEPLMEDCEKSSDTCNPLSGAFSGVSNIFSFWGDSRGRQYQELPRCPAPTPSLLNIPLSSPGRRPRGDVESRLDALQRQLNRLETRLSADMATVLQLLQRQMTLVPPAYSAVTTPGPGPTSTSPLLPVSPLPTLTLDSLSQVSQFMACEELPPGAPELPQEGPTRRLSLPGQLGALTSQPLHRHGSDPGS", "assay": "primary screen, population patch clamp on CHO cells stably expressing hERG", "units": {"hERG current change (%, negative = inhibition) at 1uM": "%"}, "values": [{"molecule": "COc1ccc(OCCOC(=O)C(C)NS(=O)(=O)c2ccc(NC(C)=O)cc2)cc1", "note": "(stereo not drawn)", "hERG current change (%, negative = inhibition) at 1uM": 14}, {"molecule": "Cc1c(/C=N/Nc2ccc(C(=O)O)cc2)c2ccccc2n1C", "hERG current change (%, negative = inhibition) at 1uM": 9.56}, {"molecule": "Cc1cc(C)nc(NC(=O)c2ccc(Cl)cc2Cl)n1", "hERG current change (%, negative = inhibition) at 1uM": 2.13}, {"molecule": "Cc1c(Cl)cccc1NC(=O)c1cc(C2CC2)on1", "hERG current change (%, negative = inhibition) at 1uM": 5.83}, {"molecule": "C#CCOCCOCCOCCNc1nc(N2CCN(C(=O)[C@H]([C@@H](C)CC)n3cc([C@@H](N)CO)nn3)CC2)nc(N2CCN(C(=O)[C@H](Cc3ccc(O)cc3)n3cc([C@@H](N)C(C)CC)nn3)CC2)n1.Cl", "note": "(stereo partly drawn)", "hERG current change (%, negative = inhibition) at 1uM": 14.5}, {"molecule": "CCCSc1cc(N)cc([N+](=O)[O-])c1", "hERG current change (%, negative = inhibition) at 1uM": -4.52}, {"molecule": "CN(C)S(=O)(=O)N1CCC(CO)(Cc2cccc(C(F)(F)F)c2)CC1", "hERG current change (%, negative = inhibition) at 1uM": -1.27}, {"molecule": "CC(=O)N1CSCC1C(=O)NNS(=O)(=O)c1ccccc1", "note": "(stereo not drawn)", "hERG current change (%, negative = inhibition) at 1uM": 9.31}, {"molecule": "CC(Sc1nccn1C)C(=O)NC1(C#N)CCCCC1", "note": "(stereo not drawn)", "hERG current change (%, negative = inhibition) at 1uM": 6.36}, {"molecule": "O=C(CN(Cc1ccco1)C(=O)c1ccc(Cl)cc1)Nc1c(Cl)cc(Cl)cc1Cl", "hERG current change (%, negative = inhibition) at 1uM": 10.8}, {"molecule": "COc1ccccc1NC(=O)NNC(=O)c1ccc2ccccc2c1", "hERG current change (%, negative = inhibition) at 1uM": 18.4}, {"molecule": "O=C(NCCO)c1cc([N+](=O)[O-])cc2c1C=Cc1ccccc1O2", "hERG current change (%, negative = inhibition) at 1uM": -5.21}, {"molecule": "CC1CCCN(CCOCCOc2ccc(Br)cc2Cl)C1.O=C(O)C(=O)O", "note": "(stereo not drawn)", "hERG current change (%, negative = inhibition) at 1uM": -7.22}, {"molecule": "COc1cccc(/C=N/n2nnnc2N)c1", "hERG current change (%, negative = inhibition) at 1uM": 13.9}, {"molecule": "CCOC(=O)/C=C(\\C)Nc1cc(C)nn1-c1ccccc1", "hERG current change (%, negative = inhibition) at 1uM": 12.4}, {"molecule": "CCC(C)[C@@H](C(=O)N1CCNCC1)n1cc(CCCCN)nn1.Cl", "note": "(stereo partly drawn)", "hERG current change (%, negative = inhibition) at 1uM": 27.6}, {"molecule": "COc1cc(S(=O)(=O)N2CCN(C(=O)c3ccco3)CC2)ccc1Cl", "hERG current change (%, negative = inhibition) at 1uM": 8.83}, {"molecule": "O=C(O)c1cccc2c1C(=O)c1ccc(N3CCCC3)cc1S2(=O)=O", "hERG current change (%, negative = inhibition) at 1uM": 18.7}, {"molecule": "COc1ccc(NC(=O)Cn2nc(C(=O)O)c3ccccc3c2=O)cc1Cl", "hERG current change (%, negative = inhibition) at 1uM": 17.2}, {"molecule": "CC1CCc2nn(CC(=O)NCc3ccco3)cc2C1", "note": "(stereo not drawn)", "hERG current change (%, negative = inhibition) at 1uM": 5.91}, {"molecule": "CCn1c(=O)cc(OCC(=O)NCCCN2CC(C)CC(C)C2)c2ccccc21", "note": "(stereo not drawn)", "hERG current change (%, negative = inhibition) at 1uM": 12}, {"molecule": "COCc1c(C(=O)N2CCN(Cc3c(F)cccc3Cl)CC2)oc2ccccc12", "hERG current change (%, negative = inhibition) at 1uM": 11.6}, {"molecule": "CSc1ccccc1NC(=O)CN(C)Cc1cc(=O)n2ccsc2n1", "hERG current change (%, negative = inhibition) at 1uM": -4.27}, {"molecule": "CS(=O)(=O)c1sc2nc(-c3cccs3)cc(-c3ccccc3)c2c1N", "hERG current change (%, negative = inhibition) at 1uM": 16.5}]}]}
